In the supplement of paper PMC4604168 (melanoma cell lines):
This is one part of the list. Repeats are few or missing, and single values can be far off.

Each molecule was assayed on RPMI7951 (assay: cell count relative to DMSO control; melanoma cells; higher = more viable cells). Settings: library dose: standard library concentration; 72 h.
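Further: cells treated in 1,536-well plates, then fixed and DAPI-stained, with nuclei counted from automated high-throughput microscope images.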

| Structure (SMILES) | cell count [%] |
| --- | --- |
| CCCS(=O)(=O)Nc1ccc(F)c(C(=O)c2c[nH]c3ncc(Cl)cc23)c1F + COc1ccc2c(c1)CCC1C2CCC2(C)C(NCCCCCCN3C(=O)C=CC3=O)CCC12 [U73122] (first compound 0.4 µM, partner dose 2 µM) | 88.6 |
| CCCS(=O)(=O)Nc1ccc(F)c(C(=O)c2c[nH]c3ncc(Cl)cc23)c1F + C#Cc1cccc(Nc2ncnc3cc(OCCOC)c(OCCOC)cc23)c1 [erlotinib] (first compound 0.4 µM, partner dose 4 µM) | 72.7 |
| CS(=O)(=O)c1ccc(C(=O)Nc2ccc(Cl)c(-c3ccccn3)c2)c(Cl)c1 [vismodegib] + COc1ccc(Cl)c(Nc2nc3ccccc3nc2NS(=O)(=O)c2cccc(NC(=O)C(C)(C)N)c2)c1 [XL147] (first compound 5 µM, partner dose 4 µM) | 124 |
| CS(=O)(=O)c1ccc(C(=O)Nc2ccc(Cl)c(-c3ccccn3)c2)c(Cl)c1 [vismodegib] + Cn1c(Nc2ccc(C(F)(F)F)cc2)nc2cc(Oc3ccnc(-c4ncc(C(F)(F)F)[nH]4)c3)ccc21 [CHIR265] (first compound 5 µM, partner dose 0.4 µM) | 54.5 |
| C=C(c1ccc(C(=O)O)cc1)c1cc2c(cc1C)C(C)(C)CCC2(C)C [Bexarotene] + C=CCn1c(=O)c2cnc(Nc3ccc(N4CCN(C)CC4)cc3)nc2n1-c1cccc(C(C)(C)O)n1 [MK1775] (first compound 10 µM, partner dose 0.1 µM) | 59.5 |
| CS(=O)(=O)c1ccc(C(=O)Nc2ccc(Cl)c(-c3ccccn3)c2)c(Cl)c1 [vismodegib] + Oc1cc(-c2nc(-c3ccccc3)[nH]c2-c2ccncc2)ccc1Cl [L779450] (first compound 5 µM, partner dose 1 µM) | 82.9 |
| CN(c1ncccc1CNc1nc(Nc2ccc3c(c2)CC(=O)N3)ncc1C(F)(F)F)S(C)(=O)=O + C=C(c1ccc(C(=O)O)cc1)c1cc2c(cc1C)C(C)(C)CCC2(C)C [Bexarotene] (first compound 0.4 µM, partner dose 10 µM) | 49.7 |
| CS(=O)(=O)c1ccc(C(=O)Nc2ccc(Cl)c(-c3ccccn3)c2)c(Cl)c1 [vismodegib] + O=C1NC(=O)/C(=C/c2ccc(-c3ccc(F)cc3O)o2)S1 [AS252424] (first compound 5 µM, partner dose 5 µM) | 80 |
| NC1(c2ccc(-c3nc4ccn5c(=O)[nH]nc5c4cc3-c3ccccc3)cc2)CCC1 + CN(NC(=O)CC(=O)NN(C)C(=S)c1ccccc1)C(=S)c1ccccc1 [STA4783] (first compound 2 µM, partner dose 0.03 µM) | 87.1 |
| CS(=O)(=O)c1ccc(C(=O)Nc2ccc(Cl)c(-c3ccccn3)c2)c(Cl)c1 [vismodegib] + NC1(c2ccc(-c3nc4ccn5c(=O)[nH]nc5c4cc3-c3ccccc3)cc2)CCC1 [MK2206] (first compound 5 µM, partner dose 2 µM) | 83.9 |
| CN(c1ncccc1CNc1nc(Nc2ccc3c(c2)CC(=O)N3)ncc1C(F)(F)F)S(C)(=O)=O + O=C(CCCCCCC(=O)Nc1ccccc1)NO [vorinostat] (first compound 0.4 µM, partner dose 0.4 µM) | 67.5 |
| CS(=O)(=O)c1ccc(C(=O)Nc2ccc(Cl)c(-c3ccccn3)c2)c(Cl)c1 [vismodegib] + Nc1ncn([C@H]2C[C@H](O)[C@@H](CO)O2)c(=O)n1 [decitabine] (first compound 5 µM, partner dose 0.5 µM) | 97.5 |
| CN(c1ncccc1CNc1nc(Nc2ccc3c(c2)CC(=O)N3)ncc1C(F)(F)F)S(C)(=O)=O + O=C(Nc1cccc(Cl)c1)Nc1ncc(CCNc2ncnc3ccsc23)s1 [SNS314] (first compound 0.4 µM, partner dose 0.004 µM) | 55.8 |
| C=C(c1ccc(C(=O)O)cc1)c1cc2c(cc1C)C(C)(C)CCC2(C)C [Bexarotene] + COc1ccc(-c2ccc3c(N4CCOCC4)nc(N4C[C@@H](C)O[C@@H](C)C4)nc3n2)cc1CO [KU0063794] (first compound 10 µM, partner dose 0.1 µM) | 64.1 |
| C=C(c1ccc(C(=O)O)cc1)c1cc2c(cc1C)C(C)(C)CCC2(C)C [Bexarotene] + Cn1cncc1[C@@](N)(c1ccc(Cl)cc1)c1ccc2c(c1)c(-c1cccc(Cl)c1)cc(=O)n2C [tipifarnib] (first compound 10 µM, partner dose 0.05 µM) | 77.8 |
| CCCS(=O)(=O)Nc1ccc(F)c(C(=O)c2c[nH]c3ncc(Cl)cc23)c1F + CCN(CC)CCCCNc1ncc2cc(-c3cc(OC)cc(OC)c3)c(NC(=O)NC(C)(C)C)nc2n1 [PD173074] (first compound 0.4 µM, partner dose 0.5 µM) | 128 |

| Structure (SMILES) | cell count [%] |
| --- | --- |
| CN(c1ncccc1CNc1nc(Nc2ccc3c(c2)CC(=O)N3)ncc1C(F)(F)F)S(C)(=O)=O + Cn1c(Nc2ccc(C(F)(F)F)cc2)nc2cc(Oc3ccnc(-c4ncc(C(F)(F)F)[nH]4)c3)ccc21 [CHIR265] (first compound 0.4 µM, partner dose 0.4 µM) | 38.2 |
| C=C(c1ccc(C(=O)O)cc1)c1cc2c(cc1C)C(C)(C)CCC2(C)C [Bexarotene] + CC(=O)c1c(C)c2cnc(Nc3ccc(N4CCNCC4)cn3)nc2n(C2CCCC2)c1=O [palbociclib] (first compound 10 µM, partner dose 0.2 µM) | 59.1 |
| C=C(c1ccc(C(=O)O)cc1)c1cc2c(cc1C)C(C)(C)CCC2(C)C [Bexarotene] + Cc1nc(Nc2ncc(C(=O)Nc3c(C)cccc3Cl)s2)cc(N2CCN(CCO)CC2)n1 [dasatanib] (first compound 10 µM, partner dose 0.02 µM) | 44.3 |
| CCCS(=O)(=O)Nc1ccc(F)c(C(=O)c2c[nH]c3ncc(Cl)cc23)c1F + NCC(=O)Nc1ccc(-n2nc(C(F)(F)F)cc2-c2ccc3c(ccc4ccccc43)c2)cc1 [OSU03012] (first compound 0.4 µM, partner dose 5 µM) | 67.7 |
| NC1(c2ccc(-c3nc4ccn5c(=O)[nH]nc5c4cc3-c3ccccc3)cc2)CCC1 + OCCn1cc(-c2cnc3nnn(Cc4ccc5ncccc5c4)c3n2)cn1 [PF04217903] (first compound 2 µM, partner dose 5 µM) | 88.3 |
| C=C(c1ccc(C(=O)O)cc1)c1cc2c(cc1C)C(C)(C)CCC2(C)C [Bexarotene] + C#Cc1cccc(Nc2ncnc3cc(OCCOC)c(OCCOC)cc23)c1 [erlotinib] (first compound 10 µM, partner dose 4 µM) | 56.4 |
| CS(=O)(=O)c1ccc(C(=O)Nc2ccc(Cl)c(-c3ccccn3)c2)c(Cl)c1 [vismodegib] + CC(C)CCN1c2nc(Nc3cc(F)c(O)c(F)c3)ncc2N(C)C(=O)C1C [BID1870] (first compound 5 µM, partner dose 1 µM) | 90.9 |
| NC1(c2ccc(-c3nc4ccn5c(=O)[nH]nc5c4cc3-c3ccccc3)cc2)CCC1 + COc1cc2c(Oc3ccc4[nH]c(C)cc4c3F)ncnc2cc1OCCCN1CCCC1 [cediranib] (first compound 2 µM, partner dose 2 µM) | 93.3 |
| C=C(c1ccc(C(=O)O)cc1)c1cc2c(cc1C)C(C)(C)CCC2(C)C [Bexarotene] + COc1ccc2c(c1)CCC1C2CCC2(C)C(NCCCCCCN3C(=O)C=CC3=O)CCC12 [U73122] (first compound 10 µM, partner dose 2 µM) | 26.3 |
| NC1(c2ccc(-c3nc4ccn5c(=O)[nH]nc5c4cc3-c3ccccc3)cc2)CCC1 + CS(=O)(=O)CCNCc1ccc(-c2ccc3ncnc(Nc4ccc(OCc5cccc(F)c5)c(Cl)c4)c3c2)o1 [lapatinib] (first compound 2 µM, partner dose 4 µM) | 14.6 |
| CS(=O)(=O)c1ccc(C(=O)Nc2ccc(Cl)c(-c3ccccn3)c2)c(Cl)c1 [vismodegib] + COCC[n+]1c2c(n(Cc3cnccn3)c1C)C(=O)c1ccccc1C2=O [YM155] (first compound 5 µM, partner dose 0.002 µM) | 48.4 |
| CCCS(=O)(=O)Nc1ccc(F)c(C(=O)c2c[nH]c3ncc(Cl)cc23)c1F + CC(=O)c1c(C)c2cnc(Nc3ccc(N4CCNCC4)cn3)nc2n(C2CCCC2)c1=O [palbociclib] (first compound 0.4 µM, partner dose 0.2 µM) | 65.3 |
| C=C(c1ccc(C(=O)O)cc1)c1cc2c(cc1C)C(C)(C)CCC2(C)C [Bexarotene] + O=C(O)C(=O)Nc1sc2c(c1C(=O)O)CCNC2 [TCS401] (first compound 10 µM, partner dose 8.33333 µM) | 101 |
| CCCS(=O)(=O)Nc1ccc(F)c(C(=O)c2c[nH]c3ncc(Cl)cc23)c1F + Nc1nc(F)nc2c1ncn2[C@@H]1O[C@H](CO)[C@@H](O)[C@@H]1O [fludarabine] (first compound 0.4 µM, partner dose 1 µM) | 47.8 |
| NC1(c2ccc(-c3nc4ccn5c(=O)[nH]nc5c4cc3-c3ccccc3)cc2)CCC1 + COc1ccc2c(c1)CCC1C2CCC2(C)C(NCCCCCCN3C(=O)C=CC3=O)CCC12 [U73122] (first compound 2 µM, partner dose 2 µM) | 46.1 |
| CS(=O)(=O)c1ccc(C(=O)Nc2ccc(Cl)c(-c3ccccn3)c2)c(Cl)c1 [vismodegib] + COc1cc(N2CCC(N3CCN(C)CC3)CC2)ccc1Nc1ncc(Cl)c(Nc2ccccc2S(=O)(=O)C(C)C)n1 [NVP-TAE684] (first compound 5 µM, partner dose 0.4 µM) | 104 |
